The supplement of paper PMC11417369
± gives the standard deviation of the averaged measurements. The list shows a part of the results.

system: PfAP2-G AP2 domain (GST-tagged); test: gcPBM binding intensity (ln(normalized median fluorescence intensity)); higher = stronger DNA binding
Summary of the method: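 In this array assay, P. falciparum DNA-binding domains with a GST tag, expressed in E. coli, were applied for 1 h to primer-extended double-stranded 36-bp intergenic genomic probes and negative controls on an Agilent 4 × 180k array. Bound protein was visualised with Alexa488 anti-GST antibody at 488 nm. Binding intensity is the highest Masliner-normalised natural-log median intensity across replicate spots of either probe orientation.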

Sequence | gcPBM binding intensity (ln)
ATAACATAACATAATACACACATATAAAAAAGAAAT [CACACA_site3028] | 10.1 ± 0.18
ATATAATATATTTTCACACATATTTTATGATGATAA [CACACA_site5614] | 9.755 ± 0.007
AAAAAAAAAAAAAAAGGTACAGTAAAAAATTCCTCT [XGTACX_site5947] | 11.7 ± 0.98
AAATTTAATTTTATATCACACATTAAATTTTAATGG [CACACA_site4251] | 9.81 ± 0.12
AAATATAATAATATATGTACATATATATATATATAT [XGTACX_site6980] | 11.2 ± 0.72
AAAAAAATATATATATATATATATATATATATATAT [TGCATGCA_negctrl_site7] | 9.82 ± 0.79
CGTGGGAGCGGACACACACACACACCCATATATATA [CACACA_site4340] | 11.2 ± 0.85
ATACAAAAAAGAAGGACACACAGAAGTAACATGTTA [CACACA_site3074] | 11.4 ± 1
TAACATGATATATAATGTACATATAAGATATTTATA [XGTACX_site4383] | 10.9 ± 0.51
ATGAATTATATATTATGTACATATAATTAAAATATA [XGTACX_site7140] | 11.2 ± 0.8
TTTAAAAAAAAAAAAAAAAATTAAATGAATTATTAA [CACACA_negctrl_site1121] | 9.085 ± 0.007
TATGTATTAAATTTTACACACATGATTCTCTATATG [CACACA_site8720] | 9.98 ± 0.014
TATACATATTATATATGTACACATATTATATGTATA [XGTACX_site5851] | 11.3 ± 0.91
AATTTAAAAGCTTGTGGTACTTTTGCTCTTCCTTTG [XGTACX_site3148] | 11 ± 0.54
TCAACAAATAAACTTTGTACATATATACAAAATATA [XGTACX_site4447] | 10.8 ± 0.43
AAAATAATTAAAAAAAGTACTCGTAATATAAATATA [XGTACX_site4967] | 11.4 ± 0.98
TACATCGGTATATAAACACACAACAAAAATGCTTAC [CACACA_site5983] | 9.895 ± 0.007
TTTTTTTAAAAAAACAAAAAAAAAAAAAATATAAAA [TGCATGCA_negctrl_site511] | 9.82 ± 0.28
TTAAAAGATATTACATGTACATATTCAATATATGTA [XGTACX_site5895] | 11.1 ± 0.69
ACAAATAAATAAAAATGTACAAATGAATACATCTTA [XGTACX_site3780] | 10.7 ± 0.37
ATATAAAGAAATTAATTTTTCAACAATAAAAATATA [CACACA_negctrl_site1262] | 9.645 ± 0.092
TACATTTATAATAATACACACATAAATTTACATTTT [CACACA_site3463] | 10.1 ± 0.16
TATGAAAATTAAGTTTGTACACAAGTGGAAAAAAAA [XGTACX_site6129] | 11.2 ± 0.69
AAAAAAAAAAAAAAAAAAAAAAAAAAAAAAAAAAAT [CACACA_negctrl_site882] | 11.3 ± 0.62
